The results in this text go back to ChEMBL document CHEMBL5606460, “ASAP - DENV-2 NS2B-NS3 protease fluorescence single point” (2024).

Among all 2,000 compounds or so, about 110 (5.5%) showed an effect of 50% or more. The list shows a part of the results.

The target of the experiment is Genome polyprotein (dengue virus type 2) (UniProt P29990).
[1] abbreviates: Thailand/16681/1984, Concentration 25.0 uM, Number of replicates 1.0.

Broadly, the inhibition is the change of the read-out against control, counted positive when it falls. With `C[C@H](NC(=O)C1CCN(c2ccc(C=O)cc2)CC1)c1ccc(N2CCOCC2)cc1`, the inhibition under setting [1] is 15.2%.

For the compound `CC(C)C[C@@H](NC(=O)OCc1ccccc1)C(=O)Nc1cccc(CN)c1`, the inhibition is, setting by setting: (Thailand/16681/1984, Concentration 49.5 uM, Number of replicates 2.0, Standard deviation 3.1792600205617827 %) -4.42%; (Thailand/16681/1984, Concentration 99.01 uM, Number of replicates 2.0, Standard deviation 3.3347078817009965 %) -3.69%; (Thailand/16681/1984, Concentration 198.0 uM, Number of replicates 2.0, Standard deviation 3.065424880922284 %) -2.71%.

In the case of `NCc1cccc(NC(=O)c2ccc(OCc3ccccc3)cc2)c1`, the inhibition is, setting by setting: (Thailand/16681/1984, Concentration 49.5 uM, Number of replicates 2.0, Standard deviation 2.4267153963452164 %) -8.23%; (Thailand/16681/1984, Concentration 99.01 uM, Number of replicates 2.0, Standard deviation 3.232210455045171 %) -7.44%; (Thailand/16681/1984, Concentration 198.0 uM, Number of replicates 2.0, Standard deviation 1.7215868196403763 %) -4.67%.

Regarding `CCCN(C)C(=O)c1cc(Cl)ccc1NS(=O)(=O)c1ccc(Oc2ccccc2Cl)cc1`, the inhibition by setting is: (Thailand/16681/1984, Concentration 49.5 uM, Number of replicates 2.0, Standard deviation 0.9470295707961462 %) 75.9%; (Thailand/16681/1984, Concentration 99.01 uM, Number of replicates 2.0, Standard deviation 0.4835625940830703 %) 88.8%; (Thailand/16681/1984, Concentration 198.0 uM, Number of replicates 2.0, Standard deviation 0.2692812727579233 %) 93.4%.

With `O=Cc1ccc(N2CCC(C(=O)Nc3ccccc3Cc3ccccc3)CC2)cc1`, under setting [1], the inhibition was determined as 15%.

Take `CN(C)c1ccc(C(=O)Nc2cc(Cl)cc(C(=O)NC(C)(C)CO)c2)nc1`: the inhibition is 5.12% (Thailand/16681/1984, Concentration 49.5 uM, Number of replicates 2.0, Standard deviation 13.004898337129504 %); -1.14% (Thailand/16681/1984, Concentration 99.01 uM, Number of replicates 2.0, Standard deviation 3.791027680137292 %); -0.928% (Thailand/16681/1984, Concentration 198.0 uM, Number of replicates 2.0, Standard deviation 10.980370085636464 %).

`Cc1cc(CO)c2cccc(NC(=O)Cc3cccc(CN)c3)c2n1`: the inhibition is, setting by setting: (Thailand/16681/1984, Concentration 49.95 uM, Number of replicates 2.0, Standard deviation 1.2018993187616485 %) 15.4%; (Thailand/16681/1984, Concentration 99.9 uM, Number of replicates 2.0, Standard deviation 0.39117400474888586 %) 23.6%.

Take `NS(=O)(=O)c1ccc(CN2CC[C@H](c3c[nH]c4ccccc34)C2)cc1`: the inhibition (Thailand/16681/1984, Concentration 49.5 uM, Number of replicates 2.0, Standard deviation 3.0170194361417653 %) is -0.147%; the inhibition (Thailand/16681/1984, Concentration 99.01 uM, Number of replicates 2.0, Standard deviation 4.2466169051015 %) was 1.94%; the inhibition (Thailand/16681/1984, Concentration 198.0 uM, Number of replicates 2.0, Standard deviation 3.715968526211635 %) was found to be 3.94%.

On to `CN(C)Cc1ccc(NCc2ccc(N3CCN(C)CC3)cc2)nc1`, for which the inhibition is -3.53% (Thailand/16681/1984, Concentration 49.5 uM, Number of replicates 2.0, Standard deviation 2.616869754240302 %); -3.88% (Thailand/16681/1984, Concentration 99.01 uM, Number of replicates 2.0, Standard deviation 3.1418138943590055 %); -3.69% (Thailand/16681/1984, Concentration 198.0 uM, Number of replicates 2.0, Standard deviation 2.0894730047130525 %).

On to `Cc1cc(CO)c2cccc(Cc3cccc(C(=O)NCc4ncc[nH]4)c3)c2n1`, for which the inhibition runs as follows: (Thailand/16681/1984, Concentration 49.95 uM, Number of replicates 2.0, Standard deviation 0.223500691555814 %) -5.07%; (Thailand/16681/1984, Concentration 99.9 uM, Number of replicates 2.0, Standard deviation 0.46496774169485194 %) -5.63%.

Turning to `NCc1cccc(NC(=O)[C@@H](NC(=O)OCc2ccccc2)C(C2CCC2)C2CCC2)c1`, the inhibition reads like this: (Thailand/16681/1984, Concentration 49.5 uM, Number of replicates 2.0, Standard deviation 1.0931409988329541 %) 0.575%; (Thailand/16681/1984, Concentration 99.01 uM, Number of replicates 2.0, Standard deviation 7.259842534821406 %) 21.9%; (Thailand/16681/1984, Concentration 198.0 uM, Number of replicates 2.0, Standard deviation 0.026391345013157583 %) 99.8%.

In the case of `CCN(C(=O)C1CCN(c2ccc(C=O)cc2)CC1)[C@H]1CCOC(C)(C)C1`, the inhibition under setting [1] was found to be 13%.

Regarding `O=Cc1ccc(N2CCC(C(=O)NCc3cc(-c4ccc(Cl)cc4)on3)CC2)cc1`, under setting [1], the inhibition turned out to be 1.65%.

For the compound `C[C@H](NC(=O)C1CCN(c2ccc(C=O)cc2)CC1)C12CC3CC(CC(C3)C1)C2`, under setting [1], the inhibition is 15%.

`Cc1cc(CO)c2cccc(C[C@H](NC(=O)Cc3nnc(C)[nH]3)C(=O)O)c2n1`: the inhibition is 4.77% (Thailand/16681/1984, Concentration 49.95 uM, Number of replicates 2.0, Standard deviation 0.7154639954840757 %) and 13.3% (Thailand/16681/1984, Concentration 99.9 uM, Number of replicates 2.0, Standard deviation 0.7742416532425804 %).

As for `OC1CCN(Cc2c[nH]c3ccccc23)CC1`, the inhibition by setting is: (Thailand/16681/1984, Concentration 49.5 uM, Number of replicates 2.0, Standard deviation 2.3223002037884486 %) -3.12%; (Thailand/16681/1984, Concentration 99.01 uM, Number of replicates 2.0, Standard deviation 2.9172253083494284 %) -2.25%; (Thailand/16681/1984, Concentration 198.0 uM, Number of replicates 2.0, Standard deviation 2.845140204642094 %) -1.14%.

`CCOCc1nc(Cn2cc(C3CCNCC3)c(C)n2)cs1`: the inhibition reads like this: (Thailand/16681/1984, Concentration 49.5 uM, Number of replicates 2.0, Standard deviation 0.8755520139100964 %) -1.44%; (Thailand/16681/1984, Concentration 99.01 uM, Number of replicates 2.0, Standard deviation 1.6845203733224097 %) -1.51%; (Thailand/16681/1984, Concentration 198.0 uM, Number of replicates 2.0, Standard deviation 0.07156608634134701 %) 0.2%.

As for `O=Cc1ccc(N2CCC(C(=O)N(CCc3ccccc3)C3CCCC3)CC2)cc1`, the inhibition under setting [1] came to 12.7%.

With `Cc1cc(CO)c2cccc(Cc3cccc(C(=O)N4CCC(CN)CC4)c3)c2n1`, the inhibition runs as follows: (Thailand/16681/1984, Concentration 49.95 uM, Number of replicates 2.0, Standard deviation 0.03521723226612688 %) 98.6%; (Thailand/16681/1984, Concentration 99.9 uM, Number of replicates 2.0, Standard deviation 0.007908771829372243 %) 98.5%.
